# Measured values from the supplement of paper PMC10600219.
# Counter-ions that a name gives are not always drawn. The full ranking holds about 2,800 compounds; the median of “cell viability relative to vehicle” is about 1.1, and the lowest 2% start at about 0.19. The list shows a part of the results.
# System: NCI-H2228 parental
# Experiment: cell viability relative to vehicle (fraction of vehicle); NCI-H2228 is an ALK-positive lung cancer line and DTP means drug-tolerant persister; higher = less growth inhibition
# Conditions: 100 nM; treatment time 6 days
# Summary of the method: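 NCI-H2228 parental cells and drug-tolerant persister cells were plated in 384-well plates; the persisters had been generated with 1000 nM of a targeted drug over 13 days. One day later, the 3114-agent TargetMol anti-cancer compound library was added at 100 nM, with DMSO serving as vehicle. ATP was measured 6 days after that using the CellTiter-Glo 3D Cell Viability Assay. Values are cell viability expressed relative to vehicle-treated cells.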
row,SMILES,cell viability
1,CC(C)(CNC(=O)c1cccc(-c2noc(C(F)(F)F)n2)c1)c1coc(-c2ccccc2)n1,1.2
2,CCCCCCCCC[C@H](O)CC(=O)CCc1ccc(O)c(OC)c1 [10-Gingerol],1.08
3,Cc1cccc(C(=O)O)c1O [Hydroxytoluic acid],1.33
4,O=C(C=Cc1ccccc1)NC(NC(=S)Nc1ccc(Cl)cc1)C(Cl)(Cl)Cl (stereo unspecified),0.887
5,C=C1CCC[C@]2(C)C=C3OC(=O)C(C)=C3C[C@@H]12 [Atractylenolide I],1.07
6,Cc1nc(Nc2cnn(C3CCNCC3)c2)nc2c1N(C)C(=O)c1cc3ccccc3cc1N2C,1.11
7,OCCOCCN1CCN(C2=Nc3ccccc3Sc3ccccc32)CC1 [Quetiapine Fumarate],1.07
8,COc1cccc2c1C(=O)c1c(O)c3c(c(O)c1C2=O)C[C@@](O)(C(=O)CO)C[C@@H]3O[C@H]1C[C@H](N)[C@H](O)[C@H](C)O1 [Doxorubicin hydrochloride],0.219
9,CCC(=O)O[C@@H](O[P@](=O)(CCCCc1ccccc1)CC(=O)N1C[C@H](C2CCCCC2)C[C@H]1C(=O)O)C(C)C [Fosinopril sodium],0.975
10,CC1(C)S[C@@H]2[C@H](NC(=O)[C@H](N)c3ccc(O)cc3)C(=O)N2[C@H]1C(=O)O [Amoxicillin trihydrate],0.817
11,COc1cc(-c2cn(C)c(=O)c3cnccc23)c(OC)cc1CN(C)C,1.07
12,Cc1cc(C(=O)NOCCO)c(Nc2ccc(I)cc2F)n(C)c1=O,0.554
13,Cc1cc(-c2nnc(N)nc2-c2ccc(F)cc2)cc(Cl)n1,1.03
14,COc1ccc2c(C)nc(Nc3nc(C)c(C)c(=O)[nH]3)nc2c1 [Madrasin],1.1
15,Cc1cc2c(cc1S(N)(=O)=O)S(=O)(=O)CCC2 [Meticrane],0.924
16,COCCOc1cnc2ccn([C@H](C)c3nnc4c(F)cc(-c5cnn(C)c5)cn34)c(=O)c2c1,1.06
17,Cc1c(NC(=O)c2cc(C(N)=O)nc3cc(F)ccc23)c(C(F)(F)F)nn1Cc1ccc(C#N)cc1,0.862
18,Clc1cnccn1 [2-Chloropyrazine],1.04
19,Nc1nc2c(ncn2[C@@H]2O[C@H](CO)[C@@H](O)[C@H]2O)c(=O)[nH]1 [Guanosine],1.11
20,COC(=O)Nc1nc2cc(C(=O)c3ccccc3)ccc2[nH]1 [Mebendazole],0.758
21,CC(C)c1ccc2oc3nc(N)c(C(=O)O)cc3c(=O)c2c1 [Amlexanox],1.12
22,CC1(C)S[C@@H]2[C@H](NC(=O)[C@H](NC(=O)N3CCNC3=O)c3ccccc3)C(=O)N2[C@H]1C(=O)O [Azlocillin sodium],1.06
23,CCn1c2ccccc2c2cc(Nc3ccnc(NCCCN4CCOCC4)n3)ccc21,1.02
24,COc1ccc(-c2oc3cc(O)cc(O)c3c(=O)c2O)cc1 [kaempferide],1.13
25,O=C1[C@H](Cc2ccc(O)cc2)N2C(=O)CCN(C(=O)NCc3ccccc3)[C@H]2CN1Cc1cccc2ccccc12,1.11
26,O=C(O)c1cccnc1Nc1cccc(C(F)(F)F)c1 [Niflumic acid],1.02

row,SMILES,cell viability
1,Cc1oncc1C(=O)Nc1ccc(C(F)(F)F)cc1 [Leflunomide],0.955
2,COc1ccc(C(Cl)=C(c2ccc(OC)cc2)c2ccc(OC)cc2)cc1 [Chlorotrianisene],0.908
3,Cc1cn([C@H]2O[C@@H](CO)[C@H](O)[C@H]2F)c(=O)[nH]c1=O [Clevudine],1.06
4,CCOC(=O)[C@H](CCc1ccccc1)N[C@@H](C)C(=O)N1Cc2ccccc2C[C@H]1C(=O)O [Quinapril hydrochloride],1.09
5,CC(CCc1ccccc1)NCC(O)c1ccc(O)c(C(N)=O)c1 (stereo unspecified) [Labetalol hydrochloride],1.04
6,Cn1cc(-c2ccc3ncc(Cc4ccc5ncccc5c4)n3n2)cn1,0.958
7,CN1C(C)(C)CCCC1(C)C [Pempidine],1.15
8,CN(C)/N=N/c1[nH]cnc1C(N)=O [Dacarbazine],1.1
9,C[N+](C)(C)CCCCCC[N+](C)(C)C [Hexamethonium Bromide],0.895
10,CC1C(=O)OC2C(O)C34C5CC(C(C)(C)C)C36C(OC(=O)C6O)OC4(C(=O)O5)C12O (stereo unspecified) [Ginkgolide B],1.18
11,O=c1ccc2ccc(OCCCCN3CCN(c4cccc5sccc45)CC3)cc2[nH]1 [Brexpiprazole],1.26
12,COc1cccc(-c2cc(NCc3ccc4c(c3)OCO4)nc(N)n2)c1 [Wnt agonist 1],0.383
13,Cc1cc2cc(Oc3ccnc(Nc4cccc(CS(=O)(=O)NCCN(C)C)c4)n3)ccc2[nH]1 [Sulfatinib],1.03
14,COc1ccc([C@@H]2CC(=O)c3c(O)cc(O[C@@H]4O[C@H](CO[C@@H]5O[C@@H](C)[C@H](O)[C@@H](O)[C@H]5O)[C@@H](O)[C@H](O)[C@H]4O)cc3O2)cc1O [Hesperidin],1.03
15,O=c1cc(N2CCOCC2)oc2c(-c3cccc4c3sc3ccccc34)cccc12,1.13
16,CC(C)(C(=O)O)c1ccc(C(O)CCCN2CCC(C(O)(c3ccccc3)c3ccccc3)CC2)cc1 (stereo unspecified) [Fexofenadine hydrochloride],1.36
17,COc1cc2cc(Oc3ccc4ccc(=O)oc4c3)c(=O)oc2cc1O [Daphnoretin],1.06
18,CN(C)CCCN1c2ccccc2Sc2ccccc21 [Promazine hydrochloride],1.02
19,CCCCCCCCCCCCCC(=S)NCCCC[C@H](NC(=O)OCc1ccccc1)C(=O)Nc1ccccc1 [Thiomyristoyl],1.17
20,COC(=O)C[C@H](NC(=O)[C@H](C)NC(=O)[C@@H](NC(=O)OCc1ccccc1)C(C)C)C(=O)CF,1.18
21,COc1cc(O)c2c(c1)oc(=O)c1c3cc(O)c(O)cc3oc21 [Wedelolactone],0.907
22,O=C(/C=C/c1ccc2ccccc2n1)c1ccncc1,1.07
23,Clc1ccc(NN=C(c2ccccc2)c2ccccn2)nc1,0.86
24,O=C(NCCCn1ccnc1)c1cc(-c2ccco2)on1,1.01
25,C[N+]1(C)[C@@H]2C[C@@H](OC(=O)C(O)(c3cccs3)c3cccs3)C[C@H]1[C@@H]1O[C@@H]12 [Tiotropium bromide],1.13
